Test results published in the supplement of paper PMC3334620.
Over roughly 33,000 sequences, “E-score (-0.5 to 0.5)” has its median near -0.012; the highest 2% begin near 0.29. The list shows a part of the results.

The sequences below were run against T1, Ybr033w (UniProt P38073) (assay: PBM E-score (8-mer binding enrichment) (E-score (-0.5 to 0.5)); higher = stronger / more preferred TF binding; most listed sequences are background and not binding sites). Conditions: protein concentration: 200 nM; construct: GST-full length.
T1 sequence: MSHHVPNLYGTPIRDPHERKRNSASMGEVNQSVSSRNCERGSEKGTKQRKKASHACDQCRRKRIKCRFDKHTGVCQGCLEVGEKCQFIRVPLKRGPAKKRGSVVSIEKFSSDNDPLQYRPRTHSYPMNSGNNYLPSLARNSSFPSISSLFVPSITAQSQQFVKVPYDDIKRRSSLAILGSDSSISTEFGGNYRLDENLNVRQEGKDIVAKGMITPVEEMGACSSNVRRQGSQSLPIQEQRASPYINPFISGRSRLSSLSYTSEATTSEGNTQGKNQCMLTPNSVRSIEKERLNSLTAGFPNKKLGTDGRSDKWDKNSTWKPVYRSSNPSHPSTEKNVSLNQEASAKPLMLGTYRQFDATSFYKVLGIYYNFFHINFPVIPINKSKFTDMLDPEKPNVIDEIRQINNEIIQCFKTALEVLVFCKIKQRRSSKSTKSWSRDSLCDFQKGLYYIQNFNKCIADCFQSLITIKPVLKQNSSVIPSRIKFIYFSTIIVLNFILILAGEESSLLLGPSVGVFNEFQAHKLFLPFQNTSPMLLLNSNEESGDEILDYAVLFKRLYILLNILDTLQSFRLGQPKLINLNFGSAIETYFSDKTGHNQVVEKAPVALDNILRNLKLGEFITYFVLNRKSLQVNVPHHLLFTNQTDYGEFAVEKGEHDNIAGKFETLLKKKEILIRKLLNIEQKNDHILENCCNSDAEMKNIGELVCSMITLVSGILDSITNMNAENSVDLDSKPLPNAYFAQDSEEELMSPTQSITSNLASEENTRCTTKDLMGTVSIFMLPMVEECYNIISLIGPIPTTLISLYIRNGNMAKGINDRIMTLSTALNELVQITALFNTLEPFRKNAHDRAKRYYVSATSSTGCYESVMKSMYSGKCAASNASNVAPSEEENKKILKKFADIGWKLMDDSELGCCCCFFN
Experimental: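 Universal 'all 10-mer' protein binding microarrays (Agilent AMADID 015681) probed with GST-tagged S. cerevisiae TFs (full-length or DBD) made by in vitro transcription/translation (PURExpress), about 100-200 nM. Bound TF was detected with fluorescent anti-GST. Each ungapped 8-mer (which stands for itself and its reverse complement) is scored by the PBM enrichment score (E-score), a modified Wilcoxon-Mann-Whitney statistic from -0.5 to +0.5, computed with the Universal PBM Analysis Suite. Scale: above 0.35 generally sequence-specific binding.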

Sequence | PBM E-score
ACAATTAA | 0.302
CACCAACC | -0.105
ACAGTCAG | -0.0837
CAATCAGA | -0.0691
AGAAGCGA | 0.0622
CACACTGG | -0.178
GAGCTAGC | 0.043
AAGATGAG | -0.118
GATAGTGA | 0.121
CCAAGGGG | -0.0712
CTCGCTAC | -0.0664
AAACCATA | 0.125
GAGCCATA | -0.102
CCACGCGA | -0.116
AAGAGCAC | 0.0266
AATAACGT | 0.0686
ATAACAGG | 0.00867
CGTTAACA | 0.0218
CGGGAGTC | -0.238
AACACTTA | 0.122
GCGAAAAC | 0.0292
CATGGATA | -0.00626
GCCTCACA | -0.0218
CGAGTTGC | 0.0346
ATCGACCG | -0.0751

Sequence | PBM E-score
CGAGAAGA | -0.103
CGAAATCA | 0.191
AAGGCGAT | -0.0115
CTGGGCGA | -0.251
ATCGCGAA | 0.0947
ACAAACGA | 0.202
CCAGCCGG | -0.0863
TCAGTGGA | -0.188
TCAAAAAA | 0.265
TGCACGAA | 0.111
AGTGATAG | 0.112
AAGTAACT | 0.176
ACTGTTAT | 0.157
ATCTGCAT | 0.0612
CTCGGCTC | -0.118
CAGAAGTA | 0.216
GCAGCCAA | 0.0335
CATGGGGC | -0.344
ATGAGTGA | 0.127
AGGTAAGC | -0.0417
TCAACCCA | 0.0561
CATCATTC | -0.0159
TGTAGTAA | 0.218
AATTGAAA | 0.127
ATGTGAAG | 0.221

Sequence | PBM E-score
GATAATCA | 0.236
CACTGAGG | -0.192
ATTCTGAC | -0.0262
GCTCTAAC | -0.158
CCAGAATC | -0.0157
TCTCATCA | 0.117
CTGTAGGC | -0.0845
GGCTCTGA | -0.0487
GTGGGGCA | -0.304
ATCACTTA | 0.0662
ATTAATCG | 0.166
CTACACTA | 0.133
GGTGTAAA | 0.0578
CTTACTTA | 0.0259
CACGTTAC | -0.163
AACCAACC | -0.112
ACAGGTCG | -0.158
ATAGTTAC | 0.179
AATTGTGG | -0.0479
GTCGTTCA | -0.126
CTACGGCA | -0.0788
GATTTAAC | 0.114
CCGGCCAA | -0.222
CTGTGTTA | -0.00531
GGTTTCTA | 0.136

Sequence | PBM E-score
ATTATCCA | 0.341
CTACATAC | 0.0802
CGGCGAGA | -0.206
ATGCCACC | -0.0873
ATTATAGC | 0.0663
AATGCCAG | -0.0103
CCTGCATC | -0.11
ACGATACT | -0.0668
ATGCGTAG | -0.128
TATATGCA | 0.0241
CGCCAGCA | -0.229
GTAGTAGA | 0.0726
CAACAACA | 0.168
GCTGGCGA | -0.195
CAGTGGAC | -0.154
CGGAGCAG | -0.197
ATGCCTCA | -0.195
AGTACGAA | 0.175
TAGTCGAA | 0.0465
AGATCGCA | 0.0312
AACAGTCC | 0.0135
GGCGGGCA | -0.237
ACGGACCT | -0.151
AGGAAGCG | -0.179
CCGCACCC | -0.181

Sequence | PBM E-score
CGCCGACC | -0.299
ACGCCCAG | -0.0654
CGAAGAGA | 0.0929
AGGCATCA | -0.0852
TCAGATAA | 0.204
AGAAAGCT | 0.0617
CTGGATGA | 0.0499
GGGACTGA | -0.33
CCGCTAGA | -0.228
AGAAGGTG | 0.0838
GGGGTAAA | -0.0233
AGTAGGAG | -0.068
AATCTTTC | 0.00719
AATCCGTA | 0.0927
GCACCCTA | -0.0575
AATCACTG | 0.092
GTATGAAC | 0.127
ATACACTG | -0.117
GCTGGGAC | -0.3
ACACTCGG | 0.0346
GACATACC | -0.082
CGCGAGCG | -0.249
ATGAGAAT | 0.0749
ATATACCC | 0.118
AGGTCTGG | -0.164

Sequence | PBM E-score
AAGACACT | 0.192
AGTTCTTA | 0.171
CGCACGAG | -0.182
CTATACAG | 0.0247
CACTGCTC | 0.0524
CGGTGCGC | -0.156
GGTTATAC | -0.0104
CACGTCTA | 0.155
AAGTGCCA | -8e-05
GGATGCAA | -0.00236
CGAAAAAC | 0.226
GTTGTGGA | 0.0877
CCCGTCCC | -0.264
CAAGGCTC | -0.346
GTAACTGA | -0.102
CGAGCATA | 0.0149
CAGTATGG | -0.0882
TCAACCGA | 0.146
CATTACAA | 0.19
AAACTGGA | 0.0838
AAACATAT | 0.287
CCACAGTC | -0.269
CAGCGTAA | 0.0724
CGATCGTC | -0.157
AGAGACGA | -0.022

Sequence | PBM E-score
CCGTGAGC | -0.21
ACCGTTCC | 0.0384
CACCAGTA | 0.0586
GCAGTGGC | -0.138
ATAGGGGC | -0.276
GAACTGGC | 0.0434
ACTACGCG | -0.0805
AGAAGAGC | -0.145
CCGAATCG | 0.0587
AGACCACA | -0.134
AAACGTCG | -0.0262
AATTATGT | 0.239
AATCGGTA | 0.0669
AGTTGGAA | 0.124
CATTCGCA | -0.00542
GAATGTGA | 0.0401
TCACCTAA | 0.0978
GAGAGCTC | -0.197
CTCCACTA | -0.0126
AATCGCGT | 0.0913
AGATCCAG | -0.0318
ATCAGTTC | -0.0797
